Experimental data published in patent US9493440B2, “Compounds inhibiting leucine-rich repeat kinase enzyme activity” (Merck Sharp & Dohme Corp., priority 2013, dated 2016).

Experiments:
[1] = molecular target: T1, LRRK2(G2019S mutation, GST-LRRK2(amino acids 970-2527)) (Homo sapiens (Human), UniProt Q5S007, G2019S); assay: LRRK2 5 mM ATP LanthaScreen Assay; type: biochemical; conditions: mean IC50
Protocol: LRRK2 5 mM ATP LanthaScreen™ Assay
Results are analysed using Assay Data Analyzer. […] Results are analysed using Assay Data Analyzer.

[2] = molecular target: T1, LRRK2(G2019S mutation, GST-LRRK2(amino acids 970-2527)); assay: LRRK2 Km ATP LanthaScreen Assay
[3] = read-out: LRRK2 IC50, Km ATP LanthaScreen Assay, mean IC50

SMILES | IC50 [2, 3] [nM] | further results
CCS(=O)(=O)N1CCN(c2cc(-c3n[nH]c4ccc(OC5(C)CC5)cc34)ncn2)CC1 [Example 36] |  | IC50 [1]: 3.7 nM
CN1CCN(c2cc(-c3n[nH]c4ccc(OC5(C)CC5)cc34)ncn2)CC1 [Example 47] | 1.2 | IC50 [1]: 10 nM
CC1(Oc2ccc3[nH]nc(-c4cc(N5CCN(S(C)(=O)=O)CC5)ncn4)c3c2)CC1 [Example 3] | 2.26 | IC50 [1]: 11 nM
CC(C)N1CCN(c2cc(-c3n[nH]c4ccc(OC5(C)CC5)cc34)ncn2)CC1 [Example 75] | 1.6 | IC50 [1]: 14 nM
C[C@H]1CN(c2cc(-c3n[nH]c4ccc(OC5(C)CC5)cc34)ncn2)CCN1Cc1cocn1 [Example 130] | 0.7 | 
COCC1CN(c2cc(-c3n[nH]c4ccc(OC5(C)CC5)cc34)ncn2)CCO1 (stereo not drawn) [Example 105] | 0.8 | 
CC(CC1CC1)N1CCN(c2cc(-c3n[nH]c4ccc(OC5(C)CC5)cc34)ncn2)C[C@@H]1C (stereo partly drawn) [Example 132] | 1.5 | 
CC1(Oc2cc3c(-c4cc(N5CC6CCC(C5)O6)ncn4)n[nH]c3cc2F)CC1 [Example 154] | 1.93 | 
C[C@H]1[C@H](N)[C@@H](O)CN1c1cc(-c2n[nH]c3cc(F)c(OC4(C)CC4)cc23)ncn1 [Example 206] | 0.99 | 
CCN1CCN(c2cc(-c3n[nH]c4ccc(OC5(C)CC5)cc34)ncn2)C[C@@H]1C [Example 133] | 0.6 | 
CC1(Oc2ccc3[nH]nc(-c4cc(N5C[C@@H]6C[C@H]5CN6Cc5ccccc5)ncn4)c3c2)CC1 [Example 91] | 5.8 | 
CCC1(Oc2ccc3[nH]nc(-c4cc(N5CCN(C)C(=O)C5)ncn4)c3c2)CC1 [Example 216] | 1.27 | 
COc1ccnc(N2CCN(c3cc(-c4n[nH]c5cc(F)c(OC6(C)CC6)cc45)ncn3)CC2)c1 [Example 175] | 1.9 | 
CN1C[C@@H]2C[C@H]1CN2c1cc(-c2n[nH]c3ccc(OC4(C)CC4)cc23)ncn1 [Example 108] | 10.3 | 
CC1(Oc2ccc3[nH]nc(-c4cc(N5CCN(CC6CC6)C(=O)C5)ncn4)c3c2)CC1 [Example 92] | 1.5 | 
CO[C@H]1CN(c2cc(-c3n[nH]c4cc(F)c(OC5(C)CC5)cc34)ncn2)C[C@@H]1O [Example 187] | 1.3 | 
CC1(Oc2ccc3[nH]nc(-c4cc(N5CCN(CCO)CC5)ncn4)c3c2)CC1 [Example 8] | 1.17 | 
CC1(Oc2ccc3[nH]nc(-c4cc(N5CCOC6(CC6)C5)ncn4)c3c2)CC1 [Example 6] | 1.51 | 
CC(C)CC1COCCN1c1cc(-c2n[nH]c3ccc(OC4(C)CC4)cc23)ncn1 (stereo not drawn) [Example 106] | 6.6 | 
CC1(Oc2cc3c(-c4cc(N5CCC(F)(CO)CC5)ncn4)n[nH]c3cc2F)CC1 [Example 185] | 2.7 | 
CC1(Oc2cc3c(-c4cc(N5CC[C@@H](CO)C5)ncn4)n[nH]c3cc2F)CC1 [Example 169] | 1.1 | 
CCCN1CCN(c2cc(-c3n[nH]c4cc(F)c(OC5(C)CC5)cc34)ncn2)CC1 [Example 158] | 1.03 | 
Cn1cc(N2CCN(c3cc(-c4n[nH]c5cc(F)c(OC6(C)CC6)cc45)ncn3)CC2)cn1 [Example 177] | 1.9 | 
CCOCC1(Oc2ccc3[nH]nc(-c4cc(N5CCOCC5)ncn4)c3c2)CC1 [Example 202] |  | IC50 [2]: 2.3 nM
CC(N1CCN(c2cc(-c3n[nH]c4ccc(OC5(C)CC5)cc34)ncn2)CC1)C1(C)CC1 (stereo not drawn) [Example 122] | 2.8 | 

SMILES | IC50 [2, 3] [nM] | further results
CCOC(=O)N1CCN(c2cc(-c3n[nH]c4ccc(OC5(C)CC5)cc34)ncn2)CC1 [Example 114] | 2.1 | 
C[C@@H]1CN(c2cc(-c3n[nH]c4ccc(O[C@@H]5CCOC5)cc34)ncn2)C[C@H](C)O1 [Example 162] | 12 | 
COC1CCN(c2cc(-c3n[nH]c4ccc(OC5(C)CC5)cc34)ncn2)CC1 [Example 229] | 1.03 | 
CCC1(Oc2ccc3[nH]nc(-c4cc(N5C[C@H](O)[C@@H](N)[C@@H]5C)ncn4)c3c2)CC1 [Example 214] | 3.1 | 
COC[C@H]1CN(c2cc(-c3n[nH]c4ccc(OC5(C)CC5)cc34)ncn2)CCO1 [Example R2] |  | IC50 [2]: 0.8 nM
CN1CCC2(CCN(c3cc(-c4n[nH]c5ccc(OC6(C)CC6)cc45)ncn3)C2)C1=O (stereo not drawn) [Example 30] | 0.95 | 
CC1(Oc2ccc3[nH]nc(-c4cc(N5CCC(O)CC5)ncn4)c3c2)CC1 [Example 228] | 0.79 | 
C[C@H]1CN(c2cc(-c3n[nH]c4ccc(OC5(C)CC5)cc34)ncn2)CCN1CCC(F)(F)F [Example 134] | 0.8 | 
CCC1(Oc2ccc3[nH]nc(-c4cc(N5C[C@@H](C)O[C@@H](C)C5)ncn4)c3c2)CC1 [Example 210] | 1.14 | 
CC1(Oc2cc3c(-c4cc(N5CCN(C6CCS(=O)(=O)C6)CC5)ncn4)n[nH]c3cc2F)CC1 (stereo not drawn) [Example 166] | 0.8 | 
CC1(Oc2ccc3[nH]nc(-c4cc(N5CCC[C@@H](O)C5)ncn4)c3c2)CC1 [Example 71] | 3.5 | 
Cc1cnc(C)c(N2CCN(c3cc(-c4n[nH]c5cc(F)c(OC6(C)CC6)cc45)ncn3)CC2)n1 [Example 178] | 1.2 | 
CC1(Oc2ccc3[nH]nc(-c4cc(N5CCN(c6ncccn6)CC5)ncn4)c3c2)CC1 [Example 50] | 4.3 | 
CCC1(Oc2ccc3[nH]nc(-c4cc(N5CCO[C@@H](C)C5)ncn4)c3c2)CC1 [Example 207] | 1.61 | 
CC1(Oc2ccc3[nH]nc(-c4cc(N5CCN(CCF)C(=O)C5)ncn4)c3c2)CC1 [Example 224] | 1.81 | 
CC1(Oc2ccc3[nH]nc(-c4cc(N5CCC6(CC5)CNC(=O)CO6)ncn4)c3c2)CC1 [Example 113] | 0.9 | 
CC(=O)N1CCN(c2cc(-c3n[nH]c4ccc(OC5(C)CC5)cc34)ncn2)CC1 [Example 48] | 1.2 | 
CN1CCN(c2cc(-c3n[nH]c4ccc(OC5(C)CC5)cc34)ncn2)CC1=O [Example 4] | 2.47 | 
C[C@@H]1COC[C@@H](C)N1c1cc(-c2n[nH]c3ccc(OC4(C)CC4)cc23)ncn1 [Example 107] | 39.1 | 
CC1(Oc2ccc3[nH]nc(-c4cc(N5CC6CCC(C5)O6)ncn4)c3c2)CC1 [Example 29] | 1.59 | 
CCC1(Oc2ccc3[nH]nc(-c4cc(N5CCO[C@H](C)C5)ncn4)c3c2)COC1 [Example 196] | 1.51 | 
C[C@H]1CN(c2cc(-c3n[nH]c4ccc(OC5(C)CC5)cc34)ncn2)CCN1C [Example 237] |  | IC50 [2]: 0.6 nM
Cn1cc(N2CCN(c3cc(-c4n[nH]c5ccc(OC6(C)CC6)cc45)ncn3)CC2)cn1 [Example 61] | 1.4 | 
COCC(C)N1CCN(c2cc(-c3n[nH]c4ccc(OC5(C)CC5)cc34)ncn2)CC1 (stereo not drawn) [Example 121] | 1.1 | 
CCC1(Oc2ccc3[nH]nc(-c4cc(N5CCO[C@H](C)C5)ncn4)c3c2)CC1 [Example 211] | 0.99 | 

SMILES | IC50 [2, 3] [nM] | further results
CC1(Oc2ccc3[nH]nc(-c4cc(N5CCN(Cc6ccco6)CC5)ncn4)c3c2)CC1 [Example 118] | 1.7 | 
CCN1CCN(c2cc(-c3n[nH]c4ccc(OC5(C)CC5)cc34)ncn2)C[C@H]1C [Example 142] | 0.8 | 
CC1(Oc2ccc3[nH]nc(-c4cc(N5CCOC(COc6ccccc6)C5)ncn4)c3c2)CC1 (stereo not drawn) [Example 101] | 2.8 | 
COCCN1CCN(c2cc(-c3n[nH]c4ccc(OC5(C)CC5)cc34)ncn2)CC1 [Example 52] | 1.5 | 
COC1CCCN(c2cc(-c3n[nH]c4ccc(OC5(C)CC5)cc34)ncn2)C1 (stereo not drawn) [Example 74] | 5.7 | 
CC1(Oc2cc3c(-c4cc(N5CCN(CC6CCCO6)CC5)ncn4)n[nH]c3cc2F)CC1 (stereo not drawn) [Example 176] | 0.7 | 
c1nc(-c2n[nH]c3ccc(OC4CCOCC4)cc23)cc(N2CCOCC2)n1 [Example V2] |  | IC50 [2]: 28.6 nM
Cc1cnc(N2CCN(c3cc(-c4n[nH]c5ccc(OC6(C)CC6)cc45)ncn3)CC2)nc1 [Example 148] | 1.9 | 
CC1(Oc2ccc3[nH]nc(-c4cc(N5CCO[C@@H](CO)C5)ncn4)c3c2)CC1 [Example 23] | 0.75 | 
C[C@@H]1COC[C@H](C)N1c1cc(-c2n[nH]c3cc(F)c(OC4(C)CC4)cc23)ncn1 [Example 192] | 1.6 | 
C[C@H]1CN(c2cc(-c3n[nH]c4ccc(OC5(C)CC5)cc34)ncn2)CCN1C [Example 26] | < 0.6 | 
CC1(Oc2ccc3[nH]nc(-c4cc(N5CCOC(C(F)(F)F)C5)ncn4)c3c2)CC1 (stereo not drawn) [Example 99] | 3.2 | 
CC1(Oc2ccc3[nH]nc(-c4cc(N5C[C@@H]6C[C@H]5CO6)ncn4)c3c2)CC1 [Example 82] | 6.3 | 
CC1(Oc2ccc3[nH]nc(-c4cc(N5CCN(C(=O)C(C)(C)O)CC5)ncn4)c3c2)CC1 [Example 97] | 1.1 | 
CN(C)[C@H]1CN(c2cc(-c3n[nH]c4ccc(OC5(C)CC5)cc34)ncn2)C[C@@H]1O [Example 53] | 2.7 | 
CC1(Oc2ccc3[nH]nc(-c4cc(N5CCC6(CCNC6=O)CC5)ncn4)c3c2)CC1 [Example 15] | 0.86 | 
CC1(Oc2cc3c(-c4cc(N5CCOC(C(F)(F)F)C5)ncn4)n[nH]c3cc2F)CC1 (stereo not drawn) [Example 168] | 1.9 | 
CC1(Oc2ccc3[nH]nc(-c4cc(N5CCN(C6CCCCC6)C(=O)C5)ncn4)c3c2)CC1 [Example 104] | 1.2 | 
CC1(Oc2cc3c(-c4cc(N5CCc6nccnc6C5)ncn4)n[nH]c3cc2F)CC1 [Example 188] | 1.4 | 
CC(C(F)F)N1CCN(c2cc(-c3n[nH]c4ccc(OC5(C)CC5)cc34)ncn2)C[C@H]1C (stereo partly drawn) [Example 140] | 1.8 | 
CC1(Oc2ccc3[nH]nc(-c4cc(N5CCN(CCO)CC5)ncn4)c3c2)CC1 [Example 43] | 1.2 | 
CC1(Oc2cc3c(-c4cc(N5CCn6ncnc6C5)ncn4)n[nH]c3cc2F)CC1 [Example 165] | 1.5 | 
CC(CC1CC1)N1CCN(c2cc(-c3n[nH]c4ccc(OC5(C)CC5)cc34)ncn2)CC1 (stereo not drawn) [Example 125] | 1 | 
CC1(Oc2ccc3[nH]nc(-c4cc(N5CCn6ncnc6C5)ncn4)c3c2)CC1 [Example 88] | 3.9 | 
COCCN1CCN(c2cc(-c3n[nH]c4ccc(OC5(C)CC5)cc34)ncn2)C[C@H]1C [Example 138] | 2.3 | 
